{"source": "PubChem BioAssay AID1468", "about": "(National Center for Advancing Translational Sciences (NCATS), 2008)", "note": "The whole screen tested about 280,000 compounds, of which about 1,100 (0.39%) were called active. The shares of active, inactive and inconclusive entries below differ from those in the screen. Calls follow the shape of the dose curve; as a rule, active = well fitted inhibition curve with a large enough effect; inconclusive = small, poorly fitted or top-dose-only effect, or effect the other way; inactive = flat fitted curve, though single readings scatter. Potencies of inconclusive entries are left out as doubtful fits. % is scaled to controls: 0 for no effect and ±100 for the full control effect; potency is read from the fitted curve at half-maximal effect; tags tell the direction and shape of the fitted curve."}
{"target": "Microtubule-associated protein tau (Homo sapiens) (UniProt P10636)", "sequence (P10636 whole entry, looked up, the tested form may be a part)": "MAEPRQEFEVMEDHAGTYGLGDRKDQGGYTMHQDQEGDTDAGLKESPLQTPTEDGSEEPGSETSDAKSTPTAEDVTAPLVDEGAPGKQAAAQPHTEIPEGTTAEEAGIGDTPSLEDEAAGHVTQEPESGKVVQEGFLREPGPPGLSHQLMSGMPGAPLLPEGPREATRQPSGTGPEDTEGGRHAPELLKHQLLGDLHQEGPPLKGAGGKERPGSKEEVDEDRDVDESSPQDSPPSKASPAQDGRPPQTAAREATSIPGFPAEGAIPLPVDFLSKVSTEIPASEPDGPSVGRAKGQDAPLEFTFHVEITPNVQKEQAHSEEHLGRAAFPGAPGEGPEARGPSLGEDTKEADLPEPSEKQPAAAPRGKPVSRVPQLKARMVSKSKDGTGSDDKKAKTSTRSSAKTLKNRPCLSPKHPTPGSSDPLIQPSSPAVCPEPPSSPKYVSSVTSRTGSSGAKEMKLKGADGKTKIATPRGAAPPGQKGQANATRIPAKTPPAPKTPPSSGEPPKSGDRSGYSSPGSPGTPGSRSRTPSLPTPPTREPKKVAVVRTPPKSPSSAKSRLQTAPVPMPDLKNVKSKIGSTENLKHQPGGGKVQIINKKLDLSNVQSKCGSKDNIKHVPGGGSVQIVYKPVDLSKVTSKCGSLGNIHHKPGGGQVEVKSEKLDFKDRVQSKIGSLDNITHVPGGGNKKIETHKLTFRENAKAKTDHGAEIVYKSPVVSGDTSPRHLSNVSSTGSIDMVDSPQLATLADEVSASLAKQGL", "assay": "qHTS for Inhibitors of Tau Fibril Formation, Fluorescence Polarization; also: nearly all actives have a fitted effect of over 55% in size", "conditions": "K18 P301L tau heparin fibrillization, Alexa594 FP, 6 h; series mostly up to 57.7 µM; activity, negative = inhibition: at the top concentration", "in_short": "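Human K18 P301L fragment (15 uM unlabeled plus 0.24 uM Alexa 594-labeled) in 100 mM sodium acetate pH 7 with compound, aggregation induced by 20 uM heparin for 6 hr at 37 C. ThT (30 uM) added for 1 hr, then Alexa 594 FP read.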"}
{"smiles": "Cc1cccc(NC(=S)NNC(=O)Cc2ccccc2)c1", "activity, negative = inhibition": "inactive: 0.195%"}
{"smiles": "Cc1ccc(OCC(=O)NNC(=S)NC(=O)C(C)(C)C)c(Br)c1", "activity, negative = inhibition": "inactive: -6.64%"}
{"smiles": "CCOC(=O)c1cnn(-c2nc(-c3ccccc3)cs2)c1C(F)(F)F", "Potency": "inconclusive [inhibitor, single point]"}
{"smiles": "COc1ccc(S(=O)(=O)/N=C2/NC(=O)/C(=C\\c3ccco3)S2)cc1", "activity, negative = inhibition": "inactive: 9.77%"}
{"smiles": "CCOC(=O)c1ccc(CC(=O)c2ccc(O)c(O)c2O)o1", "Potency": "active: 22.4 µM"}
{"smiles": "CCc1ccccc1N1C(=O)N(CC(=O)c2ccc(Cl)cc2)c2ccccc2S1(=O)=O", "Potency": "inconclusive [inhibitor, partial curve, poor fit]"}
{"smiles": "COC(=O)c1c(SC)nc2ccccc2c1OCc1ccc(C)cc1", "Potency": "inconclusive [inhibitor, partial curve]"}
{"smiles": "COc1ccccc1OCCn1cc(/C=N/NC(=O)c2ccncc2)c2ccccc21", "Potency": "inconclusive [activator, single point]"}
{"smiles": "CCc1ccc(C2NC(=S)NC3=C2C(=O)N(c2ccccc2OC)C(c2ccc(CC)cc2)N3)cc1", "note": "(stereo not given)", "Potency": "inconclusive [inhibitor, single point]"}
{"smiles": "COc1ccc(/C=c2/sc3nc(-c4ccccc4)c(-c4ccccc4)n3c2=O)cc1", "activity, negative = inhibition": "inactive: 4.05%"}
{"smiles": "COn1c(C)c(C)c2c3nonc3ccc21", "Potency": "inconclusive [inhibitor, partial curve]"}
{"smiles": "COc1ccccc1-c1nc(-c2ccccc2)nc(N2CCN(C)CC2)c1C#N", "activity, negative = inhibition": "inactive: -2.02%"}
{"smiles": "C=CCn1c(Cc2cccs2)nnc1SCC(=O)c1ccc(F)cc1", "activity, negative = inhibition": "inactive: -8.87%"}
{"smiles": "CCOC(=O)C(NCc1ccc2c(c1)OCO2)(NC(=O)CC)C(F)(F)F", "note": "(stereo not given)", "Potency": "inconclusive [inhibitor, single point]"}
{"smiles": "N#Cc1cccc(NC(=O)COC(=O)CCc2nc3ccccc3c(=O)[nH]2)c1", "Potency": "inconclusive [activator, full curve, poor fit]"}
{"smiles": "COc1ccc(NS(=O)(=O)c2cccc(C(=O)N/N=C(\\C)c3ccncc3)c2)cc1", "activity, negative = inhibition": "inactive: 6.78%"}
{"smiles": "CCCN(CC(=O)Nc1ccc(C(N)=O)cc1)CC(=O)Nc1ccc(Cl)cc1Cl", "Potency": "inconclusive [inhibitor, partial curve]"}
{"smiles": "OC[C@@H]1[C@@H](c2ccc(F)cc2)C(c2ccccc2)=NN1c1ccccc1", "activity, negative = inhibition": "inactive: 13.5% [at 81.3 µM]"}
{"smiles": "C/C(=N/Nc1cc(-c2ccccc2)nc(-c2ccccc2)n1)c1ccc(O)cc1", "Potency": "inconclusive [activator, partial curve]"}
{"smiles": "COc1ccc([N+](=O)[O-])cc1NC(=O)CSCc1ccc(Br)cc1", "Potency": "inconclusive [inhibitor, partial curve]"}
